The record followed here is PubChem BioAssay AID1508642 (National Center for Advancing Translational Sciences (NCATS), 2021).

About 200 (0.47%) of roughly 43,000 compounds were called active. Inconclusive results (about 12%) are left out. Calls follow the shape of the dose curve; as a rule, active = well fitted cell-killing curve with a large enough effect; inconclusive = small, poorly fitted or top-dose-only effect, or effect the other way; inactive = flat fitted curve, though single readings scatter. The list shows a part of the results.
% is scaled to controls: 0 for no effect and ±100 for the full control effect.

This assay in a line: Cell viability qHTS assay in S16 Pmp22-F2sN cells. Also: nearly all actives have a fitted effect of over 65% in size. The note with it: S16 Pmp22-F2sN Schwann cells viability, CellTiter-Glo, 24 h; series mostly up to 57.5 µM; activity change, negative = cytotoxicity: at the top concentration. In outline:
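Used to flag compounds lowering reporter output through toxicity, this quantitative HTS measures ATP-based CellTiter-Glo luminescence in S16 Pmp22-F2sN Schwann cells after 24 h compound exposure at 37C.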
In the case of `Cc1ccc(NC(=O)Cn2c(=O)n(Cc3ccco3)c(=O)c3ccccc32)cc1`, the “activity change, negative = cytotoxicity” value is inactive: 23.3%.
With `CCOc1ccc(CNC(=O)c2cc3c(=O)n(C)c4ccccc4c3s2)cc1`, the “activity change, negative = cytotoxicity” value is inactive: 2.37%.
Turning to `O=C(c1ccc2c(c1)OCCO2)N(Cc1cccnc1)c1nc2ccc(F)cc2s1`, the “activity change, negative = cytotoxicity” value is inactive: 4.52%.
Take `O=C(Cn1cc(SCc2cccc(Cl)c2)c2ccccc21)N1CCOCC1`: the “activity change, negative = cytotoxicity” value was inactive: 2.93%.
Next, `O=c1[nH]c(SCc2ccc(F)cc2)nc2c1CCCC2`: inactive: -5.44%; `COc1cc(C(=O)NC2CC(=O)N(c3cccc(F)c3)C2)cc(OC)c1OC` (stereo not drawn): inactive: -8.24%.
As to `Cc1ccc(NC(=O)C2CCCN2S(=O)(=O)c2cccc3cccnc23)cc1` (stereo not drawn), the “activity change, negative = cytotoxicity” value was inactive: 13.6%.
Under `COc1ccc(-c2ccnc3c(-c4ccc(F)cc4)c(C)nn23)cc1OC` stands inactive: 14.6%.
Next, `CC1CN(C(=O)N2CCC(C(=O)NC3CCCCCC3)CC2)c2cc(Cl)ccc2O1` (stereo not drawn): inactive: -13.4%.
Under `Cc1cc(C)n2nc(CNS(=O)(=O)c3ccc(Cl)cc3)nc2n1` stands inactive: 3.77%.
Turning to `COc1ccc(-c2noc(-c3ccc(NCc4ccccc4OC)c([N+](=O)[O-])c3)n2)cc1`, the “activity change, negative = cytotoxicity” value is inactive: 3.62%.
Next, `Cc1ccc(C2=Nc3ccccc3N(CC(=O)Nc3cccc(F)c3)C(=O)C2)cc1C`: inactive: -28.6%; `CC(=O)Nc1cccc(C(=O)NCc2ccc3c(c2)CCN3C(C)=O)c1`: inactive: 12.1%; `CCn1cc(C(=O)NCCc2ccccc2)c(=O)c2cc(S(=O)(=O)N(C)C3CCCCC3)ccc21`: inactive: 0.858%.
Under `CCOc1ccccc1N(C)C(=O)C1CCCN(c2ncnc3onc(-c4ccc(F)cc4)c23)C1` (stereo not drawn) stands inactive: 2.35%; under `Cc1c(CCNC(=O)Cc2ccccc2)sc2nc(-c3ccc(F)cc3)nn12`, inactive: -23.2%.
Under `O=C(CN1CCN(Cc2ccc(Cl)cc2)C1=O)NCc1ccc(F)cc1` stands inactive: 1.11%.
Turning to `CN(C)CCCNc1oc(/C=C/c2ccc(F)cc2)nc1C#N`, the “activity change, negative = cytotoxicity” value is inactive: -1.4%.
Next, `Cc1ccc(NC(=O)CCCn2c(=O)c3cccn3c3cccnc32)c(Cl)c1`: inactive: 29.4%; `O=c1oc2c3c(ccc2c2ccccc12)OCN(Cc1cccc(Cl)c1)C3`: inactive: 13.3%.
Next, `CCOc1ccc(-c2cnc(NCc3ccc(OC)cc3OC)n2C)cc1`: inactive: -2.01%; `COCCNC(=O)C1CCCN(S(=O)(=O)c2ccc3c(ccn3C)c2)C1` (stereo not drawn): inactive: 1.13%; `Cn1nc(C(=O)N2CCN(c3ccccc3F)CC2)c2c1-c1ccccc1SC2`: inactive: 8.21%.
For the molecule `O=C1c2oc3ccc(F)cc3c(=O)c2C(c2cccc([N+](=O)[O-])c2)N1CCCN1CCOCC1` (stereo not drawn), the “activity change, negative = cytotoxicity” value was inactive: 0.374%.
`Cc1ccc(NC(=O)c2cccn2-c2nnc(N3CCCCC3)s2)cc1Cl`: the “activity change, negative = cytotoxicity” value was inactive: -3.44%.
Under `CCN(CC)CCNC(=O)Cn1ncc2c([nH]c3ccccc32)c1=O` stands inactive: 10.3%; under `CCCCN(CC)CCCNC(=O)c1cc2c(-c3ccc(OC)c(OC)c3)nn(C)c2s1`, inactive: -28.8%; under `CCCCNC(=O)CCCn1c(=O)c2ccccc2n(Cc2ccccc2C)c1=O`, inactive: -1.33%.
